Among the data in article PMC6212790 are binding signal values, retold here.

This is one part of the list. At the low end of the ranking, values are background and their order means little.

This experiment concerns the target T1, GST-Rok (full length) (UniProt O34857).
T1 sequence: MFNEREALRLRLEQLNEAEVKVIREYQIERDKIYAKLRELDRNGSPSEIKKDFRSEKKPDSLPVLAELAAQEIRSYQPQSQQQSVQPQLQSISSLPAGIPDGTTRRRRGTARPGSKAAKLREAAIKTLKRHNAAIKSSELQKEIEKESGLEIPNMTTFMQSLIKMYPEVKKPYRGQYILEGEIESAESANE
Kind of experiment: protein binding microarray.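 Further: rank score from −0.5 (least bound) to 0.5 (best bound).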 To be noted: Rok is a gene silencer of Bacillus subtilis; high values mean tight binding; most listed sequences are background and not binding sites; double strand, one strand shown.
Regarding AATGAAAC, the binding signal is -0.0809 E-score.

Take GAGGACAC: the binding signal is -0.116 E-score.

Regarding ACTTTTTC, the binding signal was 0.146 E-score.

In the case of GGGAGAGA, the binding signal is -0.149 E-score.

CTGATTAA: the binding signal worked out at 0.124 E-score.

Regarding CGGTACCC, the binding signal was -0.286 E-score.

As to ACCGAAGT, the binding signal was -0.00304 E-score.

Take GTCTAGCA: the binding signal is -0.0242 E-score.

With ATGACGCG, the binding signal was -0.104 E-score.

On to AAAACTTC, for which the binding signal is 0.0994 E-score.

Regarding AAGCGCAG, the binding signal is -0.165 E-score.

Regarding GGATGCCC, the binding signal was -0.367 E-score.

For CCGAACGG, the binding signal was -0.247 E-score.

As to GTGCTGAA, the binding signal was -0.00688 E-score.

For the sequence TGATTCCA, the binding signal is 0.0823 E-score.

On to GTCAAGAC, for which the binding signal is -0.0441 E-score.

Regarding CAGCCTAA, the binding signal is -0.148 E-score.

Sequence GTTTATTA had a binding signal of 0.168 E-score.

AAGATCTG: the binding signal turned out to be 0.126 E-score.

In the case of AGAGTAGC, the binding signal was 0.0708 E-score.

On to GAGATGCC, for which the binding signal was -0.0956 E-score.

For the sequence CAGAGGCA, the binding signal is -0.108 E-score.

Take AATTCCCC: the binding signal was -0.14 E-score.

Turning to AATGAAGA, the binding signal was -0.0815 E-score.

The sequence GGAAAAAC showed a binding signal of 0.0826 E-score.

For CTGCTTAA, the binding signal is -0.089 E-score.

Sequence ACTTGACA displayed a binding signal of 0.18 E-score.

In the case of CGACGGCG, the binding signal was -0.29 E-score.

CTGAATTA had a binding signal of 0.134 E-score.

On to ACGGACAT, for which the binding signal is -0.0802 E-score.

AAGGAGCT: the binding signal was -0.0806 E-score.

In the case of ATGAGCTG, the binding signal is -0.0991 E-score.

In the case of AGGAGACT, the binding signal was -0.294 E-score.

As to CTGCCCTC, the binding signal was -0.386 E-score.

Regarding ATGTGTGG, the binding signal was determined as 0.149 E-score.

As for GTGATTGA, the binding signal was -0.0998 E-score.

GATCTAGC: the binding signal was 0.208 E-score.

Consider CCCAGAGA, for which the binding signal is -0.159 E-score.

On to GCCCAAGA, for which the binding signal is -0.318 E-score.

Turning to CAGTCTCC, the binding signal is -0.205 E-score.

Turning to AATGACTG, the binding signal is 0.0286 E-score.

Sequence AATATGAT displayed a binding signal of 0.241 E-score.

AAATGTCT came in with a binding signal of 0.0294 E-score.

As to CAGTTCCC, the binding signal is -0.29 E-score.

As for CAAGCCAA, the binding signal is -0.0857 E-score.

Turning to GATAACGA, the binding signal came out at 0.135 E-score.

With CGCTAACC, the binding signal was -0.136 E-score.

Regarding AGACCATG, the binding signal was -0.241 E-score.

As to CTGAATTC, the binding signal is -0.0746 E-score.

CATCATCG: the binding signal is -0.11 E-score.

Sequence ACTACTCC returned a binding signal of 0.284 E-score.

The sequence AATCTTGA registered a binding signal of 0.137 E-score.

GTCCCTAA: the binding signal is -0.0585 E-score.

Regarding GGGAGGCA, the binding signal is -0.33 E-score.

Turning to AGTTCTAC, the binding signal came to 0.383 E-score.

TCGCGCGA: the binding signal came out at 0.13 E-score.

Sequence ATCTTGGA came in with a binding signal of 0.0863 E-score.

With GGGCGAGA, the binding signal is -0.174 E-score.

GTTATGTA displayed a binding signal of 0.269 E-score.

The sequence ACATGATA came in with a binding signal of 0.276 E-score.

For ATATACCA, the binding signal was determined as 0.411 E-score.

CGTTAACG displayed a binding signal of 0.062 E-score.

AGCGACTG came in with a binding signal of 0.119 E-score.

As to CCCGAGAG, the binding signal is -0.383 E-score.

For CCGGAGGC, the binding signal is -0.344 E-score.

Turning to CGGATCAA, the binding signal is -0.127 E-score.

In the case of TAGATCAA, the binding signal was 0.169 E-score.

Take CTACCTAA: the binding signal was 0.22 E-score.

CAAAGTGA gave a binding signal of 0.0257 E-score.

ACATATAG: the binding signal was 0.193 E-score.

Consider CGCAATGA, for which the binding signal was determined as 0.0568 E-score.

Take CGCGTCAA: the binding signal is -0.106 E-score.

As to AGGACAGG, the binding signal is -0.183 E-score.

In the case of AGCTTTAA, the binding signal came out at 0.181 E-score.

As for AGAGGCTA, the binding signal is -0.0665 E-score.

AAGTCGCT: the binding signal was 0.015 E-score.

For the sequence TAGCTCGA, the binding signal was 0.134 E-score.

As for GCATGAGA, the binding signal was 0.126 E-score.

As to CAGAGGTC, the binding signal was -0.202 E-score.

CGTGAGTA showed a binding signal of 0.029 E-score.

With GTCACATA, the binding signal was determined as 0.212 E-score.

As for ACGTTCCG, the binding signal is -0.176 E-score.

AAAGAATC had a binding signal of 0.0509 E-score.

Consider AGTCACGC, for which the binding signal is -0.166 E-score.

On to ACTTGCTC, for which the binding signal was -0.202 E-score.

As to CATCTCTA, the binding signal was found to be 0.00699 E-score.

Turning to TCAACCCA, the binding signal was -0.134 E-score.

For CCCGACAC, the binding signal was -0.263 E-score.

As to GCGAGGTA, the binding signal came to 0.063 E-score.

As to AACTTAGC, the binding signal stood at 0.205 E-score.

As to CGCGGTGA, the binding signal is -0.247 E-score.

As to CCCGGTTC, the binding signal was -0.283 E-score.

ACAATCCC gave a binding signal of 0.147 E-score.

As to CAGCCATC, the binding signal is -0.162 E-score.

Consider AGAACAAC, for which the binding signal is -0.0548 E-score.

Turning to CCATTTAC, the binding signal came out at 0.0848 E-score.

For the sequence GTTCGTCA, the binding signal was -0.0591 E-score.

Take AATCGCCT: the binding signal is -0.0616 E-score.

ACATTGCT registered a binding signal of 0.0806 E-score.

In the case of ATGCCCTC, the binding signal is -0.397 E-score.

Take GGCGTGGA: the binding signal is -0.34 E-score.

Regarding AAATGGAC, the binding signal was -0.143 E-score.

Turning to GTTTTTAA, the binding signal was -0.00933 E-score.

Turning to GAGCCTCA, the binding signal is -0.268 E-score.

Consider GTTGCTCA, for which the binding signal is 0.0357 E-score.

In turn, CATTGCGA registered a binding signal of 0.11 E-score.

On to TACCTCCA, for which the binding signal is 0.145 E-score.

GTAGCTCA displayed a binding signal of 0.0872 E-score.

As for ACGAAGGG, the binding signal was -0.272 E-score.

AGCATGTG registered a binding signal of 0.0341 E-score.

With GCACCCAA, the binding signal is -0.267 E-score.

Consider AGCAATTG, for which the binding signal is 0.293 E-score.

As to ATGTCACC, the binding signal came out at 0.171 E-score.

As to AGATATGC, the binding signal turned out to be 0.177 E-score.

CGTAGAAG: the binding signal turned out to be 0.128 E-score.

Turning to AACCCGCG, the binding signal was -0.135 E-score.

Regarding CATCCGAC, the binding signal was -0.168 E-score.

Consider AACCAGCG, for which the binding signal is 0.0565 E-score.

In turn, GGTATTAA showed a binding signal of 0.27 E-score.

Turning to AACCCAAA, the binding signal was -0.0729 E-score.

In the case of CTGCAATC, the binding signal was -0.145 E-score.

With CACACCGG, the binding signal was -0.295 E-score.

With CCTTCGGC, the binding signal was -0.238 E-score.

Consider ACGTGTCT, for which the binding signal amounted to 0.0579 E-score.

Consider GTAGGACA, for which the binding signal is -0.0926 E-score.

GGACTACA came in with a binding signal of 0.136 E-score.

As to ACGTTCTA, the binding signal is 0.188 E-score.

As to CAGGTGGC, the binding signal was -0.305 E-score.

GCACATGC: the binding signal was -0.0134 E-score.

Take CCTCCCGC: the binding signal was -0.27 E-score.

CAAGCCGA: the binding signal is -0.123 E-score.

As to ACGCACAC, the binding signal is -0.0734 E-score.

Take AGCTGCGG: the binding signal is -0.197 E-score.

Consider CACTTAAA, for which the binding signal was -0.125 E-score.

For AGGTTAAC, the binding signal came to 0.0563 E-score.

ACTTAGCC: the binding signal worked out at 0.0219 E-score.

Turning to GTGACTGA, the binding signal was -0.0854 E-score.

On to TGAGCTCA, for which the binding signal was -0.278 E-score.

For the sequence AAGGCCCT, the binding signal was -0.337 E-score.

For the sequence CTGGATAA, the binding signal was -0.122 E-score.

Take ATGACTCA: the binding signal was -0.102 E-score.

On to ATGCGTGG, for which the binding signal is -0.191 E-score.

Consider AATAGGCA, for which the binding signal was -0.096 E-score.

With AGCGATCA, the binding signal was -0.032 E-score.

Regarding GTTGGTCA, the binding signal was -0.114 E-score.

As to ACAATATG, the binding signal turned out to be 0.139 E-score.

Turning to CAATGGTA, the binding signal turned out to be 0.322 E-score.

GAATTTAA displayed a binding signal of 0.0678 E-score.

With ATGAGAAA, the binding signal was 0.145 E-score.

For AGAAGGTG, the binding signal is -0.155 E-score.

As to GAGGAATA, the binding signal was -0.0643 E-score.

Turning to ATGAAACG, the binding signal is -0.0665 E-score.

On to GCTGAGAC, for which the binding signal was -0.14 E-score.

Sequence GGTTGTAC registered a binding signal of 0.114 E-score.

The sequence ATATAACG gave a binding signal of 0.277 E-score.

As to GGCGGTAA, the binding signal is -0.0185 E-score.

ATAGGGTG had a binding signal of 0.0336 E-score.

Consider ATAGCGGG, for which the binding signal was -0.229 E-score.

Consider GGATCCGA, for which the binding signal is -0.152 E-score.

Regarding AGCGAACG, the binding signal is -0.178 E-score.

Consider ACGTCAAC, for which the binding signal is -0.0365 E-score.

GCGACCAA had a binding signal of 0.0439 E-score.

Turning to AACGCAGC, the binding signal was -0.0877 E-score.

As to AATAAGAA, the binding signal amounted to 0.209 E-score.

Consider AAGTGCAT, for which the binding signal was -0.0691 E-score.

CATCCTAC yielded a binding signal of 0.177 E-score.

CACAGCGG: the binding signal worked out at 0.083 E-score.

In the case of ATAGTAGA, the binding signal was determined as 0.346 E-score.

AAGCCGCA: the binding signal is -0.251 E-score.

Consider GACGGCCC, for which the binding signal is -0.234 E-score.

GTATCAAA: the binding signal is 0.14 E-score.

AGCGAAAT had a binding signal of 0.133 E-score.
